The supplement of paper PMC4604168 (melanoma cell lines)
The list shows a part of the results. Single values are uncertain, as repeats are few or missing.

Legend:
Assay in all cases: cell count relative to DMSO control; melanoma cells; higher = more viable cells
Conditions in all cases: library dose: standard library concentration; 72 h
SkMel28 = tested on: SkMel28
SkMel2 = tested on: SkMel2
SkMel30 = tested on: SkMel30
SkMel5 = tested on: SkMel5
UACC257 = tested on: UACC257
UACC62 = tested on: UACC62
WM115 = tested on: WM115
WM1716 = tested on: WM1716
WM3526 = tested on: WM3526
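Note: cells treated in 1,536-well plates, then fixed and DAPI-stained, with nuclei counted from automated high-throughput microscope images.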

| Structure (SMILES) | cell count (SkMel28) [%] | cell count (SkMel2) [%] | cell count (SkMel30) [%] | cell count (SkMel5) [%] | cell count (UACC257) [%] | cell count (UACC62) [%] | cell count (WM115) [%] | cell count (WM1716) [%] | cell count (WM3526) [%] |
| --- | --- | --- | --- | --- | --- | --- | --- | --- | --- |
| C=C(c1ccc(C(=O)O)cc1)c1cc2c(cc1C)C(C)(C)CCC2(C)C [Bexarotene] + O=C(Nc1ccccc1)c1cc([N+](=O)[O-])ccc1Cl [GW9662] (first compound 10 µM, partner dose 10 µM) | 43.9 | 68.1 | 121 | 73.1 | 70.2 | 75.2 | 92.1 | 106 | 85.7 |
| NC1(c2ccc(-c3nc4ccn5c(=O)[nH]nc5c4cc3-c3ccccc3)cc2)CCC1 + N#Cc1c(O)c2c(-c3ccc(-c4ccccc4O)cc3)csc2[nH]c1=O [A769662] (first compound 2 µM, partner dose 10 µM) | 48.1 | 64.8 | 94.4 | 66.4 | 93.8 | 71.2 | 79.7 | 77.8 | 76.1 |
| CS(=O)(=O)c1ccc(C(=O)Nc2ccc(Cl)c(-c3ccccn3)c2)c(Cl)c1 [vismodegib] + N#Cc1c(O)c2c(-c3ccc(-c4ccccc4O)cc3)csc2[nH]c1=O [A769662] (first compound 5 µM, partner dose 10 µM) | 125 | 97.7 | 116 | 94.5 | 115 | 96.6 | 104 | 95 | 98.6 |
| NC1(c2ccc(-c3nc4ccn5c(=O)[nH]nc5c4cc3-c3ccccc3)cc2)CCC1 + Oc1cc(-c2nc(-c3ccccc3)[nH]c2-c2ccncc2)ccc1Cl [L779450] (first compound 2 µM, partner dose 1 µM) | 33.9 | 4.26 | 91.7 | 58.1 | 98 | 67.9 | 27.7 | 63 | 49.8 |
| CN(c1ncccc1CNc1nc(Nc2ccc3c(c2)CC(=O)N3)ncc1C(F)(F)F)S(C)(=O)=O + COc1cc2ncnc(Nc3ccc(Oc4ccccc4)cc3)c2cc1OC [SrcI1] (first compound 0.4 µM, partner dose 10 µM) | 75.5 | 73.9 | 111 | 52.5 | 71.5 | 69.4 | 65.9 | 66 | 68.7 |
| CN(c1ncccc1CNc1nc(Nc2ccc3c(c2)CC(=O)N3)ncc1C(F)(F)F)S(C)(=O)=O + CCN(CC)CCCCNc1ncc2cc(-c3cc(OC)cc(OC)c3)c(NC(=O)NC(C)(C)C)nc2n1 [PD173074] (first compound 0.4 µM, partner dose 0.5 µM) | 71.9 | 80.9 | 92 | 78.6 | 77.9 | 73.7 | 77.9 | 98.3 | 101 |
| NC1(c2ccc(-c3nc4ccn5c(=O)[nH]nc5c4cc3-c3ccccc3)cc2)CCC1 + COc1ccc2c(c1)CCC1C2CCC2(C)C(NCCCCCCN3C(=O)C=CC3=O)CCC12 [U73122] (first compound 2 µM, partner dose 2 µM) | 67.5 | 80 | 87.3 | 59.9 | 85 | 66.2 | 62.9 | 77.8 | 71 |
| CN(c1ncccc1CNc1nc(Nc2ccc3c(c2)CC(=O)N3)ncc1C(F)(F)F)S(C)(=O)=O + COc1ccc(COc2ccc(Cc3cnc(N)nc3N)cc2OC)cc1 [GW2580] (first compound 0.4 µM, partner dose 5 µM) | 78.9 | 81.4 | 98.4 | 70.7 | 69.2 | 78 | 78.7 | 95.2 | 92.2 |
| CN(c1ncccc1CNc1nc(Nc2ccc3c(c2)CC(=O)N3)ncc1C(F)(F)F)S(C)(=O)=O + CCc1ccc(CCOc2ccc(CC3SC(=O)NC3=O)cc2)nc1 [pioglitazone] (first compound 0.4 µM, partner dose 10 µM) | 78.8 | 73 | 95.2 | 62.5 | 77.5 | 67.8 | 74.8 | 93.6 | 130 |
| C=C(c1ccc(C(=O)O)cc1)c1cc2c(cc1C)C(C)(C)CCC2(C)C [Bexarotene] + COc1ccc2c(c1)CCC1C2CCC2(C)C(NCCCCCCN3C(=O)C=CC3=O)CCC12 [U73122] (first compound 10 µM, partner dose 2 µM) | 62.7 | 70.3 | 113 | 86 | 74.9 | 77 | 105 | 74.5 | 87.1 |
| CCCS(=O)(=O)Nc1ccc(F)c(C(=O)c2c[nH]c3ncc(Cl)cc23)c1F + O=C1NC(=O)/C(=C/c2ccc(-c3ccc(F)cc3O)o2)S1 [AS252424] (first compound 0.4 µM, partner dose 5 µM) | 55.3 | 97.6 | 99.7 | 65.6 | 83.7 | 66.1 | 77.6 | 71.1 | 66.2 |
| NC1(c2ccc(-c3nc4ccn5c(=O)[nH]nc5c4cc3-c3ccccc3)cc2)CCC1 + COc1ccc(-c2ccc3c(N4CCOCC4)nc(N4C[C@@H](C)O[C@@H](C)C4)nc3n2)cc1CO [KU0063794] (first compound 2 µM, partner dose 0.1 µM) | 48.9 | 63.7 | 85.2 | 54 | 88 | 70 | 53.2 | 75.3 | 62.1 |
| CCCS(=O)(=O)Nc1ccc(F)c(C(=O)c2c[nH]c3ncc(Cl)cc23)c1F + O=C(Nc1ccccc1)c1cc([N+](=O)[O-])ccc1Cl [GW9662] (first compound 0.4 µM, partner dose 10 µM) | 48.6 | 87.3 | 81.4 | 79.5 | 93.5 | 47.3 | 58.6 | 81.5 | 61.3 |
| NC1(c2ccc(-c3nc4ccn5c(=O)[nH]nc5c4cc3-c3ccccc3)cc2)CCC1 + Cn1cc(/C=C2\C(=O)Nc3cccnc32)c2ccccc21 [GW441756] (first compound 2 µM, partner dose 2 µM) | 48.5 | 76.7 | 106 | 56.6 | 72.9 | 66.5 | 64.9 | 80.7 | 77.7 |
| NC1(c2ccc(-c3nc4ccn5c(=O)[nH]nc5c4cc3-c3ccccc3)cc2)CCC1 + Oc1nc(-c2ccc(C(F)(F)F)cc2)nc2c1CSCC2 [XAV939] (first compound 2 µM, partner dose 10 µM) | 60.2 | 85.2 | 112 | 64.2 | 84.7 | 87.9 | 88.7 | 60.8 | 94.9 |
| CCCS(=O)(=O)Nc1ccc(F)c(C(=O)c2c[nH]c3ncc(Cl)cc23)c1F + CC(C)CCN1c2nc(Nc3cc(F)c(O)c(F)c3)ncc2N(C)C(=O)C1C [BID1870] (first compound 0.4 µM, partner dose 1 µM) | 54 | 94.5 | 93.3 | 76.9 | 73.6 | 70 | 96.3 | 78 | 53.2 |

| Structure (SMILES) | cell count (SkMel28) [%] | cell count (SkMel2) [%] | cell count (SkMel30) [%] | cell count (SkMel5) [%] | cell count (UACC257) [%] | cell count (UACC62) [%] | cell count (WM115) [%] | cell count (WM1716) [%] | cell count (WM3526) [%] |
| --- | --- | --- | --- | --- | --- | --- | --- | --- | --- |
| CCCS(=O)(=O)Nc1ccc(F)c(C(=O)c2c[nH]c3ncc(Cl)cc23)c1F + CCc1ccc(CCOc2ccc(CC3SC(=O)NC3=O)cc2)nc1 [pioglitazone] (first compound 0.4 µM, partner dose 10 µM) | 39.6 | 82.5 | 101 | 89.9 | 98.2 | 49.1 | 82.9 | 66 | 53.1 |
| CCCS(=O)(=O)Nc1ccc(F)c(C(=O)c2c[nH]c3ncc(Cl)cc23)c1F + O=C(O)C(=O)Nc1sc2c(c1C(=O)O)CCNC2 [TCS401] (first compound 0.4 µM, partner dose 8.33333 µM) | 70.3 | 106 | 97.7 | 54.9 | 76.2 | 59.4 | 75.7 | 69.4 | 48.5 |
| CCCS(=O)(=O)Nc1ccc(F)c(C(=O)c2c[nH]c3ncc(Cl)cc23)c1F + COc1ccc2c(c1)CCC1C2CCC2(C)C(NCCCCCCN3C(=O)C=CC3=O)CCC12 [U73122] (first compound 0.4 µM, partner dose 2 µM) | 80.6 | 96.9 | 108 | 85.3 | 111 | 53.9 | 85.6 | 81.9 | 75.5 |
| CS(=O)(=O)c1ccc(C(=O)Nc2ccc(Cl)c(-c3ccccn3)c2)c(Cl)c1 [vismodegib] + O=S(=O)(c1ccccc1)N(CC(F)(F)F)c1ccc(C(O)(C(F)(F)F)C(F)(F)F)cc1 [T0901317] (first compound 5 µM, partner dose 7 µM) | 107 | 93.3 | 118 | 64 | 91.8 | 76 | 83.7 | 86 | 83.8 |
| NC1(c2ccc(-c3nc4ccn5c(=O)[nH]nc5c4cc3-c3ccccc3)cc2)CCC1 + O=C(Nc1ccccc1)c1cc([N+](=O)[O-])ccc1Cl [GW9662] (first compound 2 µM, partner dose 10 µM) | 42.1 | 61.3 | 102 | 54 | 73.9 | 70.1 | 58.1 | 71.6 | 62.1 |
| CS(=O)(=O)c1ccc(C(=O)Nc2ccc(Cl)c(-c3ccccn3)c2)c(Cl)c1 [vismodegib] + Oc1nc(-c2ccc(C(F)(F)F)cc2)nc2c1CSCC2 [XAV939] (first compound 5 µM, partner dose 10 µM) | 99.8 | 98.5 | 102 | 44.2 | 78 | 78.9 | 91.6 | 47.8 | 102 |
| C=C(c1ccc(C(=O)O)cc1)c1cc2c(cc1C)C(C)(C)CCC2(C)C [Bexarotene] + COC(=O)c1sccc1S(=O)(=O)Nc1ccc(Nc2ccccc2)cc1OC [GSK0660] (first compound 10 µM, partner dose 5 µM) | 74.7 | 88.4 | 95.4 | 90.8 | 74.8 | 78 | 97.4 | 79.6 | 81.5 |
| CCCS(=O)(=O)Nc1ccc(F)c(C(=O)c2c[nH]c3ncc(Cl)cc23)c1F + COc1cc2ncnc(Nc3ccc(Oc4ccccc4)cc3)c2cc1OC [SrcI1] (first compound 0.4 µM, partner dose 10 µM) | 55.6 | 90.9 | 109 | 64.3 | 83.3 | 58.9 | 57.8 | 75.7 | 63.5 |
| C=C(c1ccc(C(=O)O)cc1)c1cc2c(cc1C)C(C)(C)CCC2(C)C [Bexarotene] + COc1cc(N2CCC(N3CCN(C)CC3)CC2)ccc1Nc1ncc(Cl)c(Nc2ccccc2S(=O)(=O)C(C)C)n1 [NVP-TAE684] (first compound 10 µM, partner dose 0.4 µM) | 69.3 | 70.4 | 94.7 | 78 | 88.5 | 75.7 | 94.7 | 79.4 | 82.9 |
| CCCS(=O)(=O)Nc1ccc(F)c(C(=O)c2c[nH]c3ncc(Cl)cc23)c1F + Cn1cc(/C=C2\C(=O)Nc3cccnc32)c2ccccc21 [GW441756] (first compound 0.4 µM, partner dose 2 µM) | 42.4 | 111 | 113 | 82.3 | 81.5 | 62.3 | 92 | 74.9 | 56.5 |
| CN(c1ncccc1CNc1nc(Nc2ccc3c(c2)CC(=O)N3)ncc1C(F)(F)F)S(C)(=O)=O + CCCCCCCCCCCC1=C(O)C(=O)C=C(O)C1=O [Embelin] (first compound 0.4 µM, partner dose 6 µM) | 77.6 | 65.6 | 109 | 87.9 | 74.4 | 79.3 | 58.4 | 70.7 | 90 |
| C=C(c1ccc(C(=O)O)cc1)c1cc2c(cc1C)C(C)(C)CCC2(C)C [Bexarotene] + O=S(=O)(c1ccccc1)N(CC(F)(F)F)c1ccc(C(O)(C(F)(F)F)C(F)(F)F)cc1 [T0901317] (first compound 10 µM, partner dose 7 µM) | 49.5 | 79.3 | 118 | 54.3 | 72.5 | 66.2 | 78.4 | 63.6 | 61.3 |
| C=C(c1ccc(C(=O)O)cc1)c1cc2c(cc1C)C(C)(C)CCC2(C)C [Bexarotene] + CCc1ccc(CCOc2ccc(CC3SC(=O)NC3=O)cc2)nc1 [pioglitazone] (first compound 10 µM, partner dose 10 µM) | 80.9 | 98 | 120 | 55.5 | 79 | 76.9 | 90.7 | 94.6 | 93.7 |
| NC1(c2ccc(-c3nc4ccn5c(=O)[nH]nc5c4cc3-c3ccccc3)cc2)CCC1 + CC(C)CCN1c2nc(Nc3cc(F)c(O)c(F)c3)ncc2N(C)C(=O)C1C [BID1870] (first compound 2 µM, partner dose 1 µM) | 46 | 57.4 | 78.1 | 70.5 | 75 | 79.8 | 71.7 | 76.1 | 64.9 |
| NC1(c2ccc(-c3nc4ccn5c(=O)[nH]nc5c4cc3-c3ccccc3)cc2)CCC1 + Cc1cc([N+](=O)[O-])ccc1NS(=O)(=O)c1cc(Cl)ccc1Cl [FH535] (first compound 2 µM, partner dose 5 µM) | 44 | 61.8 | 97.2 | 62.4 | 56.8 | 99.4 | 59.4 | 76.8 | 79.5 |
| C=C(c1ccc(C(=O)O)cc1)c1cc2c(cc1C)C(C)(C)CCC2(C)C [Bexarotene] + COc1ccc(COc2ccc(Cc3cnc(N)nc3N)cc2OC)cc1 [GW2580] (first compound 10 µM, partner dose 5 µM) | 107 | 91.1 | 124 | 80.4 | 79.1 | 98.6 | 91.9 | 93.1 | 96.4 |
